The whole screen tested about 48,000 compounds, of which about 550 (1.1%) were called active. Roughly 4% stayed inconclusive and do not appear here. Cut-off read from the data, not from the text of the source: active = potency below about 15 µM; inconclusive = mostly about 16 µM to 33 µM; inactive = weaker than that. The list shows a part of the results.
Potency is the fitted concentration of half-maximal effect.

Sequence of UniProt P04062 (P04062 whole entry, looked up): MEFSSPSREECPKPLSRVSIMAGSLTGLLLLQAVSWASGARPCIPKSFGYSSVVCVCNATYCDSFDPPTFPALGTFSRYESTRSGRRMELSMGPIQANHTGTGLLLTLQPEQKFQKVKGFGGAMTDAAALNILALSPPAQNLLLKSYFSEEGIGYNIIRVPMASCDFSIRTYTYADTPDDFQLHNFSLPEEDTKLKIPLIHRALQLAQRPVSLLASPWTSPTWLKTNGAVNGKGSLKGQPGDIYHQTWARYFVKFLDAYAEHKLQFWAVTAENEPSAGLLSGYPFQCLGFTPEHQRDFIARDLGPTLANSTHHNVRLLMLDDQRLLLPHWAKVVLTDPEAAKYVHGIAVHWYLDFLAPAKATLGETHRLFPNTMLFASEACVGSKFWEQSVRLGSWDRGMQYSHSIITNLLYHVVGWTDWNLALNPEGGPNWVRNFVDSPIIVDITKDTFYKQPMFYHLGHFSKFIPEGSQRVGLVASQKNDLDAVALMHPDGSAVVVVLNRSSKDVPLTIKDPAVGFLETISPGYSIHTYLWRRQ

For the assay, the target named is Lysosomal acid glucosylceramidase (Homo sapiens) (UniProt P04062). In words: Glucocerebrosidase.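 Note: the screen sought inhibitors.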 The settings on record: purified enzyme, resorufin glucoside fluorescence (screen aimed at inhibitors), 20 min. The gist of the method:
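Normal human glucocerebrosidase (0.2 nM final) was assayed with resorufin β-D-glucopyranoside (30 uM final) in 50mM citric acid/KH2PO4, 10mM sodium taurocholate, 0.01% tween-20, pH 5.9. Compounds were titrated; fluorescence (Ex 548, Em 600) read after 20 min at RT.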
For `O=c1cc(-c2ccccc2)nc(N2CCN(Cc3ccccc3)CC2)[nH]1`, the Potency was inactive: > 76.9 µM.

Regarding `COc1ccc(C(=O)NC(=O)CSc2nnc(-c3ccco3)n2-c2ccccc2)cc1`, the Potency is inactive: > 76.9 µM.

With `Cc1cnc(NC(=O)CSc2ncc(-c3ccccc3)n2Cc2ccco2)s1`, the Potency is inactive: > 76.9 µM.

With `O=C(COC(=O)c1cc(S(=O)(=O)N2CCOCC2)ccc1O)NCC1CCCO1` (stereo not given), the Potency was inactive: > 76.9 µM.

In the case of `COc1ccc(C2Nc3ccccc3C(=O)N2Cc2ccco2)cc1COc1ccc(NC(C)=O)cc1` (stereo not given), the Potency was inactive: > 76.9 µM.

`O=C(CN(c1ccc2c(c1)OCCO2)S(=O)(=O)c1ccccc1)NCc1ccco1`: the Potency was inactive: > 76.9 µM.

As for `COc1ccc(-n2nnc3c(=O)n(CC(=O)NCC4CCCO4)cnc32)cc1` (stereo not given), the Potency was inactive: > 76.9 µM.

In the case of `FC(F)(F)c1nc(N2CCN(c3ccccc3)CC2)nc2c1CCCCC2`, the Potency is inactive: > 76.9 µM.

Take `COCCN(CC(=O)Nc1ccc(F)cc1)S(=O)(=O)c1ccc(S(=O)(=O)N2CCCC2)cc1`: the Potency was inactive: > 76.9 µM.

As to `CN1CCN(S(=O)(=O)c2ccc(-c3noc(C4CCN(S(C)(=O)=O)CC4)n3)cc2)CC1`, the Potency was inactive: > 76.9 µM.

For `Cc1nn(-c2ccccc2)c2sc(C(=O)c3c(N)n(C)c(=O)n(C)c3=O)cc12`, the Potency is inactive: > 76.9 µM.

As to `COC(=O)C1=CN(CCCN2CCCC2=O)C=C(C(=O)OC)C1c1cccs1`, the Potency was inactive: > 76.9 µM.

For `Cn1c(=O)[nH]c(=O)c2[nH]c(CN3CCN(C(=O)c4ccco4)CC3)nc21`, the Potency is inactive: > 76.9 µM.

As for `CCOC(=O)COc1ccc2c3c(c(=O)oc2c1C)CCC3`, the Potency entry is “inactive”.

In the case of `COc1cccc(NC(=O)N2CCN(c3cccc(C)c3C)CC2)c1`, the Potency was inactive: > 76.9 µM.

For the molecule `Cc1cccc(NC(=O)c2ccccc2C(=O)O)c1`, the Potency was inactive: > 76.9 µM.

With `CCOC(=O)Nc1sc2c(c1C#N)CCC(C)C2` (stereo not given), the Potency was inactive: > 76.9 µM.

As for `CCOc1ccccc1C(=O)NCCC(=O)O`, the Potency was inactive: > 76.9 µM.

Turning to `CN(C)C(=O)CCc1nc(-c2ccc(C(C)(C)C)cc2)no1`, the Potency was inactive: > 76.9 µM.

For the molecule `CCOC(=O)N1CCN(c2cc(=O)n(C3CCCCC3)c(=O)[nH]2)CC1`, the Potency is inactive: > 76.9 µM.

For `COc1ccc(NC(=O)Cn2cccc2)c(OC)c1`, the Potency is inactive: > 76.9 µM.

Take `CC(=O)N1CCc2cc(Br)cc(S(=O)(=O)N3CCN(c4ccccn4)CC3)c21`: the Potency is inactive: > 76.9 µM.

With `CCOC(=O)C1CCN(C(=O)CCc2ccccc2)CC1`, the Potency was inactive: > 76.9 µM.

For the molecule `COC(=O)c1ccc(C2CC(=O)Nc3cc(OC)c(OC)c(OC)c32)cc1` (stereo not given), the Potency is inactive: > 76.9 µM.

For the molecule `C=CCn1c(-c2cccs2)nc2nc3ccccc3nc21`, the Potency was inactive: > 76.9 µM.

`Cc1ccccc1C(=O)Nc1ccc(Br)c(C)n1`: the Potency was inactive: > 76.9 µM.

In the case of `CCCCCn1c(=O)[nH]c2cc(C(=O)NCCN(CC)CC)ccc2c1=O`, the Potency was inactive: > 76.9 µM.

On to `Cc1ccc(S(=O)(=O)N(C)CCCC(=O)NCc2ccc3c(c2)OCO3)cc1`, for which the Potency is inactive: > 76.9 µM.

Consider `Cc1nn(-c2ccccn2)c2nc(-c3cccs3)cc(C(=O)N3CCOCC3)c12`, for which the Potency is inactive: > 76.9 µM.

As for `COc1ccc(-c2cc3nc(C)c(CCC(=O)N4CCCCC4)c(C)n3n2)c(OC)c1`, the Potency was inactive: > 76.9 µM.

Consider `CCCc1cc(=O)[nH]c(SCC)n1`, for which the Potency is inactive: > 76.9 µM.

As to `O=C(NCCCN1CCC(Cc2ccccc2)CC1)C1CCN(S(=O)(=O)N2CCOCC2)CC1`, the Potency is inactive: > 76.9 µM.

In the case of `CCC(C)(C)n1nnnc1CN(Cc1cccs1)Cc1cc2cc(OC)ccc2[nH]c1=O`, the Potency entry is “inactive”.

For `CC(C)CCNC(=O)NC(=O)COc1ccccc1C#N`, the Potency is inactive: > 76.9 µM.

For `CCOC(=O)c1c(NC(=O)CSc2nnc(CNc3ccc(F)cc3)o2)sc(C(C)=O)c1C`, the Potency was inactive: > 76.9 µM.

In the case of `Cc1ccc(-c2nnn(CC(=O)NCCc3ccc4c(c3)OCO4)n2)o1`, the Potency is inactive: > 76.9 µM.

With `Cc1c(C(=O)N2CCOCC2)[nH]c2c1C(=O)CC(c1ccccc1Cl)C2` (stereo not given), the Potency was inactive: > 76.9 µM.

For the molecule `CC1CCc2nc(NC(=O)Cc3cccs3)sc2C1` (stereo not given), the Potency is inactive: > 76.9 µM.

With `CCOc1cc(C2C(C#N)=C(N)OC(C)=C2C(C)=O)cc(Br)c1O` (stereo not given), the Potency is inactive: > 76.9 µM.

Turning to `O=C(O)c1ccc(-n2cccc2)cc1O`, the Potency is inactive: > 76.9 µM.

Turning to `COc1cccc(N2CC(C(=O)Nc3ccc(C(=O)OC(C)C)cc3)CC2=O)c1` (stereo not given), the Potency was inactive: > 76.9 µM.

Consider `O=C(NCc1ccccc1)N[C@@H](Cc1ccccc1)C(=O)O`, for which the Potency is inactive: > 76.9 µM.

In the case of `CSCC[C@H](NC(=O)NCCC1=CCCCC1)C(=O)O`, the Potency was inactive: > 76.9 µM.

As to `COC(=O)c1cccc(NC(=O)CSc2nnc(C)n2Cc2ccccc2)c1`, the Potency was inactive: > 76.9 µM.

In the case of `Cn1c(C(=O)NCC2CCCO2)cc2c(=O)[nH]c3ccccc3c21` (stereo not given), the Potency was inactive: > 76.9 µM.

Consider `CC(C)Cc1c(O)nc(SCCN2CCOCC2)[nH]c1=O`, for which the Potency was inactive: > 76.9 µM.

Regarding `CCN(CCCNC(=O)CCNC(=O)Cn1cnc2ccccc2c1=O)c1cccc(C)c1`, the Potency was inactive: > 76.9 µM.

For `COc1ccc2nc(NC(=O)C3CCCN(S(=O)(=O)c4cccc5nonc45)C3)sc2c1` (stereo not given), the Potency was inactive: > 76.9 µM.

Consider `O/N=C1\CC2(Cc3nonc31)OCCO2`, for which the Potency was inactive: > 76.9 µM.

As to `CCOC(=O)CSc1nc2sc(C)c(C)c2c(=O)[nH]1`, the Potency is inactive: > 76.9 µM.

Take `COc1cccc(NC(=O)c2ccc(CN3CCN(c4ccccc4)CC3)cc2)c1`: the Potency is inactive: > 76.9 µM.

Consider `CCc1ccccc1N1CCN(S(=O)(=O)c2cc(OC)ccc2OC)CC1`, for which the Potency result was “inactive”.

Consider `O=C1c2ccccc2C(=O)N1Cc1nc2ccccc2c(=O)n1Cc1ccco1`, for which the Potency is inactive: > 76.9 µM.

With `CCOc1ccc2[nH]c(=O)c(CN(CCO)C(=O)CC)cc2c1`, the Potency is inactive: > 76.9 µM.

Consider `COc1ccc(C(=O)CSc2cc(C)nc3nc(C)nn23)cc1OC`, for which the Potency was inactive: > 76.9 µM.

On to `COc1ccccc1Cn1c(=O)[nH]c2cccnc21`, for which the Potency was inactive: > 76.9 µM.

Take `NC(=O)CSc1oc(-c2ccc(F)cc2)nc1S(=O)(=O)c1ccccc1`: the Potency is inactive: > 76.9 µM.

Take `O=c1[nH]c2cc3c(cc2cc1C(c1nnnn1C1CCCC1)N1CCCc2ccccc21)OCCO3` (stereo not given): the Potency is inactive: > 76.9 µM.

Regarding `CCCn1nnnc1NCc1ccccc1OCc1cccs1`, the Potency was inactive: > 76.9 µM.

`Cc1ccc(CNC(=O)c2oc3ccc(S(=O)(=O)N4CCC5(CC4)OCCO5)cc3c2C)cc1`: the Potency is inactive: > 76.9 µM.

As to `O=C(CCc1ccccc1)Nc1cccc(-c2nnc(-c3ccco3)o2)c1`, the Potency is inactive: > 76.9 µM.

Consider `CCn1c(=O)c2cc(S(=O)(=O)NCCOc3ccccc3)ccc2n(CC)c1=O`, for which the Potency is inactive: > 76.9 µM.

As for `COc1ccc(N(C)C(=O)CCS(=O)(=O)c2cccc3nonc23)c(OC)c1`, the Potency was inactive: > 76.9 µM.

For `Cc1ccc(N2CCN(C(=O)c3ccccc3Br)CC2)c(C)c1`, the Potency is inactive: > 76.9 µM.

`CCn1c(SCc2nc3ccccc3[nH]2)nnc1-c1ccccc1OC`: the Potency is inactive: > 76.9 µM.

`CCCn1nnnc1SCC(=O)NCc1ccccc1`: the Potency was inactive: > 76.9 µM.

On to `Cc1cc(C(C)(C)C)oc1C(=O)N1CCN(C(=O)c2oc(C(C)(C)C)cc2C)CC1`, for which the Potency was inactive: > 76.9 µM.

Consider `Cc1ccccc1C1=NC(c2ccc(F)cc2F)ON1` (stereo not given), for which the Potency was inactive: > 76.9 µM.

Regarding `Cc1nc2ccccc2c2oc(C(=O)NCC3CCCO3)cc12` (stereo not given), the Potency is inactive: > 76.9 µM.

As to `O=C(c1cc2nc(-c3ccccc3)cc(C(F)(F)F)n2n1)N1CCCC1`, the Potency is inactive: > 76.9 µM.

On to `O=C(OCCN1C(=O)c2ccccc2C1=O)c1cnccn1`, for which the Potency is inactive: > 76.9 µM.

Consider `Cc1cc(C(=O)Nc2ccccn2)no1`, for which the Potency was inactive: > 76.9 µM.

Take `COc1ccc(OC)c(C(=O)CSc2nnc(-c3cccs3)n2C)c1`: the Potency is inactive: > 76.9 µM.

With `COC(=O)n1c(=O)oc2ccccc21`, the Potency was inactive: > 76.9 µM.

With `Cc1nc(SCc2c(F)cccc2Cl)n[nH]1`, the Potency is inactive: > 76.9 µM.

With `NC(=O)SC/C(=N\S(=O)(=O)c1ccccc1)Nc1ccccc1`, the Potency is inactive: > 76.9 µM.

For `Cc1csc2nc(CSc3ccc(Cl)cc3)cn12`, the Potency is inactive: > 76.9 µM.

As for `CCC1CCc2c(sc(NC(=O)c3ccoc3C)c2C(N)=O)C1` (stereo not given), the Potency was inactive: > 76.9 µM.

As for `O=C(C1CCCCC1)N1CCC(n2nnc3ccccc32)CC1`, the Potency was inactive: > 76.9 µM.

In the case of `COc1ccc2nc3sc(C(=O)NCc4cccs4)c(N)c3cc2c1`, the Potency is inactive: > 76.9 µM.

With `Cc1ccc(S(=O)(=O)NC2=NCN(Cc3ccccc3)CN2)cc1`, the Potency is inactive: > 76.9 µM.

With `Cc1ccc(C)n1C(Cc1ccccc1)C(=O)O` (stereo not given), the Potency is inactive: > 76.9 µM.

Consider `COC(=O)CSc1nc2ccc(NC(C)=O)cc2s1`, for which the Potency is inactive: > 76.9 µM.

Turning to `c1cc(C(c2nnnn2C2CCCCC2)N2CCN3CCCC3C2)ccn1` (stereo not given), the Potency is inactive: > 76.9 µM.

For the molecule `Cc1cc(NC(=O)C(C)C)ncc1NC(=O)CCc1ccccc1`, the Potency was inactive: > 76.9 µM.

Consider `COc1ccccc1N1CCN(C(c2cccs2)C(C)NC(=O)c2cccs2)CC1` (stereo not given), for which the Potency was inactive: > 76.9 µM.

In the case of `CCOC(=O)C1CCCN(C(=O)c2cc3c(-c4cccc(OC)c4)nn(C)c3s2)C1` (stereo not given), the Potency is inactive: > 76.9 µM.

Consider `O=C(C1CCCN1C(=O)c1cccs1)N1CCN(Cc2ccc3c(c2)OCO3)CC1` (stereo not given), for which the Potency was inactive: > 76.9 µM.

In the case of `Cc1noc(C)c1COc1cccc(C(=O)OCC(=O)N2CC(=O)Nc3ccccc32)c1`, the Potency is inactive: > 76.9 µM.

`CCCn1c(N)c(Sc2ccc(Cl)cc2)c(=O)n(CCC)c1=O`: the Potency entry is “inactive”.

For the origin of these results see PubChem BioAssay AID360 (National Center for Advancing Translational Sciences (NCATS), 2006).
